In the supplement of paper PMC8728848:
This is one part of the list.

Experiments:
Assay in all cases: glycan array binding signal (z-score within array); higher = stronger binding
Settings in all cases: glycan notation: IUPAC condensed, linker removed
[1] = target: Gal(b1-4)GlcNAc(b1-3)Gal(b1-4)GlcNAc(b1-3)Gal(b1-4)GlcNAc(b1-3)Gal(b1-4)GlcNAc(b1-2)Man(a1-3)[Gal(b1-4)GlcNAc(b1-3)Gal(b1-4)GlcNAc(b1-3)Gal(b1-4)GlcNAc(b1-3)Gal(b1-4)GlcNAc(b1-2)Man(a1-6)]Man(b1-4)GlcNAc(b1-4)[Fuc(a1-6)]GlcNAc
In short: (§1)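 The binding signal is a Z-score computed within each array and averaged over linkers. Arrays of the same protein sequence at different concentrations or buffers were also averaged together. Data originate from 3228 arrays in the Consortium for Functional Glycomics database, kept only where the protein sequence was available.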

[2] = target: Gal(b1-4)GlcNAc(b1-3)Gal(b1-4)GlcNAc(b1-3)Gal(b1-4)GlcNAc(b1-3)Gal(b1-4)GlcNAc(b1-2)[Gal(b1-4)GlcNAc(b1-3)Gal(b1-4)GlcNAc(b1-3)Gal(b1-4)GlcNAc(b1-3)Gal(b1-4)GlcNAc(b1-6)]Man(a1-6)[Gal(b1-4)GlcNAc(b1-3)Gal(b1-4)GlcNAc(b1-3)Gal(b1-4)GlcNAc(b1-3)Gal(b1-4)GlcNAc(b1-2)Man(a1-3)]Man(b1-4)GlcNAc(b1-4)[Fuc(a1-6)]GlcNAc
In short: as §1

[3] = target: Gal(b1-4)GlcNAc(b1-3)Gal(b1-4)GlcNAc(b1-3)Gal(b1-4)GlcNAc(b1-3)Gal(b1-4)GlcNAc(b1-3)Gal(b1-4)GlcNAc(b1-2)Man(a1-3)[Gal(b1-4)GlcNAc(b1-3)Gal(b1-4)GlcNAc(b1-3)Gal(b1-4)GlcNAc(b1-3)Gal(b1-4)GlcNAc(b1-3)Gal(b1-4)GlcNAc(b1-2)Man(a1-6)]Man(b1-4)GlcNAc(b1-4)GlcNAc
In short: as §1

[4] = target: Gal(b1-4)GlcNAc(b1-3)Gal(b1-4)GlcNAc(b1-3)Gal(b1-4)GlcNAc(b1-3)Gal(b1-4)GlcNAc(b1-3)Gal(b1-4)GlcNAc(b1-2)Man(a1-3)[Gal(b1-4)GlcNAc(b1-3)Gal(b1-4)GlcNAc(b1-3)Gal(b1-4)GlcNAc(b1-3)Gal(b1-4)GlcNAc(b1-3)Gal(b1-4)GlcNAc(b1-2)Man(a1-6)]Man(b1-4)GlcNAc(b1-4)[Fuc(a1-6)]GlcNAc
In short: as §1

[5] = target: Gal(b1-4)GlcNAc(b1-3)Gal(b1-4)GlcNAc(b1-3)Gal(b1-4)GlcNAc(b1-3)Gal(b1-4)GlcNAc(b1-3)Gal(b1-4)GlcNAc(b1-2)[Gal(b1-4)GlcNAc(b1-3)Gal(b1-4)GlcNAc(b1-3)Gal(b1-4)GlcNAc(b1-3)Gal(b1-4)GlcNAc(b1-3)Gal(b1-4)GlcNAc(b1-6)]Man(a1-6)[Gal(b1-4)GlcNAc(b1-3)Gal(b1-4)GlcNAc(b1-3)Gal(b1-4)GlcNAc(b1-3)Gal(b1-4)GlcNAc(b1-3)Gal(b1-4)GlcNAc(b1-2)Man(a1-3)]Man(b1-4)GlcNAc(b1-4)[Fuc(a1-6)]GlcNAc
In short: as §1

[6] = target: Gal(b1-4)GlcNAc(b1-3)Gal(b1-4)GlcNAc(b1-3)Gal(b1-4)GlcNAc(b1-3)Gal(b1-4)GlcNAc(b1-3)Gal(b1-4)GlcNAc(b1-3)Gal(b1-4)GlcNAc(b1-2)Man(a1-3)[Gal(b1-4)GlcNAc(b1-3)Gal(b1-4)GlcNAc(b1-3)Gal(b1-4)GlcNAc(b1-3)Gal(b1-4)GlcNAc(b1-3)Gal(b1-4)GlcNAc(b1-3)Gal(b1-4)GlcNAc(b1-2)Man(a1-6)]Man(b1-4)GlcNAc(b1-4)GlcNAc
In short: as §1

[7] = target: Gal(b1-4)GlcNAc(b1-3)Gal(b1-4)GlcNAc(b1-3)GalNAc
In short: as §1

[8] = target: Gal(b1-4)GlcNAc(b1-3)Gal(b1-4)GlcNAc(b1-3)[Gal(b1-4)GlcNAc(b1-3)Gal(b1-4)GlcNAc(b1-6)]GalNAc
In short: as §1

[9] = target: Gal(b1-4)GlcNAc(b1-3)Gal(b1-4)GlcNAc(b1-6)[Gal(b1-3)]GalNAc
In short: as §1

[10] = target: Gal(b1-4)GlcNAc(b1-3)Gal(b1-4)[Fuc(a1-3)]GlcNAc(b1-3)Gal(b1-4)[Fuc(a1-3)]GlcNAc
In short: as §1

[11] = target: Gal(b1-4)GlcNAc(b1-3)GalNAc
In short: as §1

[12] = target: Gal(b1-4)GlcNAc(b1-3)[Fuc(a1-3)GlcNAc(b1-6)]Gal(b1-4)Glc
In short: as §1

[13] = target: Gal(b1-4)GlcNAc(b1-3)[Gal(b1-4)GlcNAc(b1-6)]Gal(b1-4)GlcNAc
In short: as §1

[14] = target: Gal(b1-4)GlcNAc(b1-3)[GlcNAc(b1-6)]Gal(b1-4)GlcNAc
In short: as §1

[15] = target: Gal(b1-4)GlcNAc(b1-6)Gal(b1-4)GlcNAc
In short: as §1

[16] = target: Gal(b1-4)GlcNAc(b1-6)GalNAc
In short: as §1

[17] = target: Gal(b1-4)GlcNAc(b1-6)[Gal(b1-3)]GalNAc
In short: as §1

[18] = target: Gal(b1-4)GlcNAc(b1-6)[Gal(b1-4)GlcNAc(b1-3)]GalNAc
In short: as §1

Gal(b1-4)GlcNAc6P = target: Gal(b1-4)GlcNAc6P
In short: as §1

Gal(b1-6)Gal = target: Gal(b1-6)Gal
In short: as §1

Gal3S(b1-3)GalNAc = target: Gal3S(b1-3)GalNAc
In short: as §1

Gal3S(b1-3)GlcNAc = target: Gal3S(b1-3)GlcNAc
In short: as §1

[19] = target: Gal3S(b1-3)[Fuc(a1-4)]GlcNAc
In short: as §1

Gal3S(b1-4)Glc = target: Gal3S(b1-4)Glc
In short: as §1

Gal3S(b1-4)Glc6S = target: Gal3S(b1-4)Glc6S
In short: as §1

Gal3S(b1-4)GlcNAc = target: Gal3S(b1-4)GlcNAc
In short: as §1

[20] = target: Gal3S(b1-4)[Fuc(a1-3)]Glc6S
In short: as §1

[21] = target: Gal3S(b1-4)[Fuc(a1-3)]GlcNAc
In short: as §1

[22] = target: Gal3S(b1-4)[Fuc(a1-3)]GlcNAc6S
In short: as §1

Gal3S4S(b1-4)GlcNAc = target: Gal3S4S(b1-4)GlcNAc
In short: as §1

Gal3S6S(b1-4)GlcNAc = target: Gal3S6S(b1-4)GlcNAc
In short: as §1

Gal3S6S(b1-4)GlcNAc6S = target: Gal3S6S(b1-4)GlcNAc6S
In short: as §1

Gal4S(b1-4)GlcNAc = target: Gal4S(b1-4)GlcNAc
In short: as §1

Gal4S6S(b1-4)GlcNAc = target: Gal4S6S(b1-4)GlcNAc
In short: as §1

Gal6P(b1-4)GlcNAc = target: Gal6P(b1-4)GlcNAc
In short: as §1

Gal6S(b1-3)GlcNAc = target: Gal6S(b1-3)GlcNAc
In short: as §1

Gal6S(b1-3)GlcNAc6S = target: Gal6S(b1-3)GlcNAc6S
In short: as §1

Gal6S(b1-4)Glc = target: Gal6S(b1-4)Glc
In short: as §1

B1: diCBM40 CPF071 (Clostridium perfringens) (protein)
chain: MAHHHHHHVGTGSNDDDDKSPDPMLSSLGEYKDINLESSNASNITYDLEKYKNLDEGTIVVRFNSKDSKIQSLLGISNSKTKNGYFNFYVTNSRVGFELRNQKNEGNTQNGTENLVHMYKDVALNDGDNTVALKIEKNKGYKLFLNGKMIKEVKDTNTKFLNNIENLDSAFIGKTNRYGQSNEYNFKGNIGFMNIYNEPLGDDYLLSKTGETKALNGSELGSGSGLSSLGEYKDINLESSNASNITYDLEKYKNLDEGTIVVRFNSKDSKIQSLLGISNSKTKNGYFNFYVTNSRVGFELRNQKNEGNTQNGTENLVHMYKDVALNDGDNTVALKIEKNKGYKLFLNGKMIKEVKDTNTKFLNNIENLDSAFIGKTNRYGQSNEYNFKGNIGFMNIYNEPLGDDYLLSKTGETK
glycan array binding signal (z-score) [1]: 0.079 | glycan array binding signal (z-score) [2]: 0.617 | glycan array binding signal (z-score) [3]: -0.231 | glycan array binding signal (z-score) [4]: -0.223 | glycan array binding signal (z-score) [5]: 0.352 | glycan array binding signal (z-score) [6]: -0.254 | glycan array binding signal (z-score) [7]: -0.333 | glycan array binding signal (z-score) [8]: -0.29 | glycan array binding signal (z-score) [9]: -0.304 | glycan array binding signal (z-score) [10]: -0.308 | glycan array binding signal (z-score) [11]: -0.315 | glycan array binding signal (z-score) [12]: -0.294 | glycan array binding signal (z-score) [13]: -0.222 | glycan array binding signal (z-score) [14]: -0.349 | glycan array binding signal (z-score) [15]: -0.333 | glycan array binding signal (z-score) [16]: -0.002 | glycan array binding signal (z-score) [17]: 0.586 | glycan array binding signal (z-score) [18]: -0.295 | glycan array binding signal (z-score) (Gal(b1-4)GlcNAc6P): -0.237 | glycan array binding signal (z-score) (Gal(b1-6)Gal): 0.363 | glycan array binding signal (z-score) (Gal3S(b1-3)GalNAc): -0.333 | glycan array binding signal (z-score) (Gal3S(b1-3)GlcNAc): -0.334 | glycan array binding signal (z-score) [19]: -0.331 | glycan array binding signal (z-score) (Gal3S(b1-4)Glc): -0.324 | glycan array binding signal (z-score) (Gal3S(b1-4)Glc6S): -0.327 | glycan array binding signal (z-score) (Gal3S(b1-4)GlcNAc): -0.257 | glycan array binding signal (z-score) [20]: 0.268 | glycan array binding signal (z-score) [21]: -0.338 | glycan array binding signal (z-score) [22]: -0.262 | glycan array binding signal (z-score) (Gal3S4S(b1-4)GlcNAc): -0.198 | glycan array binding signal (z-score) (Gal3S6S(b1-4)GlcNAc): -0.139 | glycan array binding signal (z-score) (Gal3S6S(b1-4)GlcNAc6S): -0.172 | glycan array binding signal (z-score) (Gal4S(b1-4)GlcNAc): -0.224 | glycan array binding signal (z-score) (Gal4S6S(b1-4)GlcNAc): -0.309 | glycan array binding signal (z-score) (Gal6P(b1-4)GlcNAc): -0.249 | glycan array binding signal (z-score) (Gal6S(b1-3)GlcNAc): -0.253 | glycan array binding signal (z-score) (Gal6S(b1-3)GlcNAc6S): -0.337 | glycan array binding signal (z-score) (Gal6S(b1-4)Glc): -0.119
